At least one peptide structure holds a part that was inferred or is arguable (an end, a ring closure or a residue). Non-standard residues stand in square brackets, D forms with d. Residues, ends and D or L forms follow the SMILES beside them. *: point of attachment. X1 = CN(C)c1ccc2c(c1)Oc1cc(N(C)C)ccc1C21OC(=O)c2cc(NC(=S)*)ccc21; pT = C[C@@H](OP(=O)(O)O)[C@H](N)C(=O)O; pS = N[C@@H](COP(=O)(O)O)C(=O)O
How the values were obtained:
Pin1 = target: T1, Pin1 (Homo sapiens, UniProt Q13526); test: Fluorescence anisotropy binding of rhodamine-labeled peptides to full length Pin1; settings: rhodamine-labeled peptide, errors are deviations from theoretical binding isotherms, read-out: Dissociation equilibrium constants for Pin1-peptide complexes, Pin1
T1 construct: His8 (cleaved yes); made in house; host or cells: E. coli
Method: (§1) Protein purification and crystallography. His8-tagged Pin1 was expressed and purified by Ni^+2-chelation chromatography, the histidine tag was removed by thrombin digestion, and the protein purified as described in Ranganathan et al., Cell 89:875–886, 1997. All site-directed mutants were constructed using the QuikChange (Stratagene) protocol and purified like wild type Pin1. Crystals of the Pin1-YpSPTpSPS complex were grown in hanging drops at 4° C. by mixing 1.0 μl of the Pin1-peptide complex with 1.0 μl of a reservoir solution containing 100 mM MOPSO-Na^+ (pH 7.0), 28% (v/v) PEG 8000, 2 mM DTT, stabilized in 100 mM MOPSO-Na^+ (pH 7.0), 25% (v/v) PEG 8000, 20% (v/v) glycerol, 1 mM DTT, and rapidly frozen in a 100 K stream of nitrogen gas. A native data set extending to 1.84 Å resolution was collected at the Stanford Synchrotron Radiation Laboratory, beamline 9-1 (λ=0.98 Å). Data were processed with DENZO and scaled with […] (Otwinowski, Z., Minor, W. Meth. Enzymol. 276:307–326, 1997). The crystals contain one Pin1-peptide complex per asymmetric unit and belong to space group P212121 (a=35.27 Å, b=43.90 Å, c=124.66 Å, α=β=γ=90°). The final data set with an overall R merge of 6.2% (R merge=33.7% in the highest resolution shell) is 97.3% complete (98.2% in the highest resolution shell) for the resolution range of 62.02 Å to 1.84 Å. The structure of the Pin1-YpSPTpSPS repeat complex was solved by molecular replacement with AMORE (Navaza, J. Acta Crystallogr. A 50:157–163, 1994) using the Pin1 monomer as a starting model (Ranganathan et al., Cell 89:875–886, 1997). The resulting model was then positionally refined against all the data between 62.02 Å and 1.84 Å using the default bulk solvent model in CNS with maximum likelihood targets (Brunger et al., Acta Crystallogr. D 54:905–921, 1998). After refining the rebuilt model, water molecules were added automatically using CNS and edited manually in O. The final positional refinement converged to a crystallographic R factor of 24% (R free=27%) for all data (17107 reflections) between 62.02 Å and 1.84 Å. This model consists of residues 1 to 38 and 51 to 163 of human Pin1, the entire phosphopeptide, and 151 water molecules. Model quality was checked with PROCHECK (Laskowski et al., J. Appl. Crystallogr. 26:283–291, 1993). A total of 91.7% of the residues are in the most favored regions of the Ramachandran plot, 6.8% in the additional allowed region, and 0.8% in the generously allowed region. Glu-5 borders the generously allowed region.
(§2) Binding Analysis. […] These peptides were derived from proteins previously shown to interact with Pin1. While the set of peptides examined is limited, a consensus emerges from comparison of the highest affinity interactions. Lyophilized peptides were dissolved in 25 mM HEPES-Na^+ (pH 7.5), 100 mM NaCl, 1 mM DTT and stored for short periods of time at −20° C. Peptides were labeled with the amine reactive reagent tetramethylrhodamine-5-(and-6)-isothiocyanate (Molecular Probes, Inc. Eugene, Oreg.) using a 2:1 molar ratio of rhodamine to peptide in 0.1 M sodium bicarbonate (pH 9.0) at ambient temperature for 10 hr. Fluorescence data were collected on a PTI Alphascan spectrofluorimeter (Photon Technology Instruments, Santa Clara, Calif.). Dissociation equilibrium constants for Pin1-peptide complexes were determined by measuring the change in fluorescence anisotropy of a set of peptide solutions at constant concentration of peptide each of which contained varied concentrations of Pin1 using the procedure described previously (Vinson et al., Biochemistry 37:10871–10880, 1998). The core binding element determined from this group of peptides is PXpSP, where X cannot be Gly. […] Several of these peptides yielded crystalline specimens; the most well ordered crystals obtained thus far included the doubly phosphorylated CTD peptide, YpSPTpSPS.

Pin1 WW domain = target: T2, Pin1 WW domain (Homo sapiens, UniProt Q13526); test: Fluorescence anisotropy binding of rhodamine-labeled peptides to isolated Pin1 WW domain; settings: rhodamine-labeled peptide, read-out: Dissociation equilibrium constants for Pin1-peptide complexes, WW
T2 construct: The WW domain of Pin1 includes residues 1 to 39
Method: as §1, §2

Pin1 PPIase domain = target: T3, Pin1 PPIase domain (Homo sapiens, UniProt Q13526); test: Fluorescence anisotropy binding of rhodamine-labeled peptides to isolated Pin1 PPIase domain; settings: rhodamine-labeled peptide, read-out: Dissociation equilibrium constants for Pin1-peptide complexes, PPIase
T3 construct: the PPIase domain includes residues 50–163 of Pin1
Method: Protein purification and crystallography. His8-tagged Pin1 was expressed and purified by Ni^+2-chelation chromatography, the histidine tag was removed by thrombin digestion, and the protein purified as described in Ranganathan et al., Cell 89:875–886, 1997. All site-directed mutants were constructed using the QuikChange (Stratagene) protocol and purified like wild type Pin1. Crystals of the Pin1-YpSPTpSPS complex were grown in hanging drops at 4° C. by mixing 1.0 μl of the Pin1-peptide complex with 1.0 μl of a reservoir solution containing 100 mM MOPSO-Na^+ (pH 7.0), 28% (v/v) PEG 8000, 2 mM DTT, stabilized in 100 mM MOPSO-Na^+ (pH 7.0), 25% (v/v) PEG 8000, 20% (v/v) glycerol, 1 mM DTT, and rapidly frozen in a 100 K stream of nitrogen gas. A native data set extending to 1.84 Å resolution was collected at the Stanford Synchrotron Radiation Laboratory, beamline 9-1 (λ=0.98 Å). Data were processed with DENZO and scaled with […] (Otwinowski, Z., Minor, W. Meth. Enzymol. 276:307–326, 1997). The crystals contain one Pin1-peptide complex per asymmetric unit and belong to space group P212121 (a=35.27 Å, b=43.90 Å, c=124.66 Å, α=β=γ=90°). The final data set with an overall R merge of 6.2% (R merge=33.7% in the highest resolution shell) is 97.3% complete (98.2% in the highest resolution shell) for the resolution range of 62.02 Å to 1.84 Å. […]
Binding Analysis. […] Fluorescence data were collected on a PTI Alphascan spectrofluorimeter (Photon Technology Instruments, Santa Clara, Calif.). Dissociation equilibrium constants for Pin1-peptide complexes were determined by measuring the change in fluorescence anisotropy of a set of peptide solutions at constant concentration of peptide each of which contained varied concentrations of Pin1 using the procedure described previously (Vinson et al., Biochemistry 37:10871–10880, 1998). The core binding element determined from this group of peptides is PXpSP, where X cannot be Gly. […]

T2 sequence (Q13526 1-39 limits assumed): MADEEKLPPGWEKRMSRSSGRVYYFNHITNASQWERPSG
T1 sequence (Q13526 whole entry): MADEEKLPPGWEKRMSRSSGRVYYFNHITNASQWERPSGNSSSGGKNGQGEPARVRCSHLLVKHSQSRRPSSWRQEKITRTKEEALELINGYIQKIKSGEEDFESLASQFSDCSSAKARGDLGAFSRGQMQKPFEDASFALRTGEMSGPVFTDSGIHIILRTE
T3 sequence (Q13526 50-163): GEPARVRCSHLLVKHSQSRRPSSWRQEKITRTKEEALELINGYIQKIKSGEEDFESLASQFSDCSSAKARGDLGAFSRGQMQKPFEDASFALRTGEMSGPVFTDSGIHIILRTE

| Kd (Pin1) [µM] | Kd (Pin1 WW domain) [µM] | Kd (Pin1 PPIase domain) [µM] | SMILES |
| --- | --- | --- | --- |
| 46 ± 6.5 | 39 ± 12 |  | C[C@@H](O)[C@H](NC(=O)[C@H](CO)NC(=S)Nc1ccc2c(c1)C(=O)OC21c2ccc(N(C)C)cc2Oc2cc(N(C)C)ccc21)C(=O)N[C@@H](CO)C(=O)N[C@H](C(=O)N1CCC[C@H]1C(=O)N[C@@H](CCCNC(=N)N)C(=O)O)[C@@H](C)OP(=O)(O)O [STSpTPR (Myt1-T455), STSpTPR] (X1-STS[pT]PR-OH) |
| 4.9 ± 1.1 | 7.7 ± 3.3 |  | CC(C)[C@H](NC(=O)[C@@H]1CCCN1C(=O)[C@@H](NC(=O)[C@H](CCCNC(=N)N)NC(=O)[C@@H]1CCCN1C(=O)[C@@H](NC(=S)Nc1ccc2c(c1)C(=O)OC21c2ccc(N(C)C)cc2Oc2cc(N(C)C)ccc21)C(C)C)[C@@H](C)OP(=O)(O)O)C(=O)O [VPRpTPV (Cdc25c-T48), VPRpTPV] (X1-VPR[pT]PV-OH) |
| 17 ± 2 | 44 ± 9.5 | 86 ± 11 | CC(C)C[C@H](NC(=O)[C@H](Cc1ccccc1)NC(=O)[C@@H]1CCCN1C(=O)[C@H](COP(=O)(O)O)NC(=O)[C@H](Cc1ccc(O)cc1)NC(=O)[C@H](Cc1ccccc1)NC(=O)[C@H](Cc1c[nH]c2ccccc12)NC(=S)Nc1ccc2c(c1)C(=O)OC21c2ccc(N(C)C)cc2Oc2cc(N(C)C)ccc21)C(=O)N[C@@H](CCC(=O)O)C(=O)O [WFYpSPFLE (Pintide), WFYpSPFLE] (X1-WFY[pS]PFLE-OH) |
| 69 ± 10 | 91 ± 30 | > 400 | CC[C@H](C)[C@H](NC(=O)[C@@H]1CCCN1C(=O)[C@H](COP(=O)(O)O)NC(=O)CNC(=O)[C@H](CC(C)C)NC(=O)[C@H](Cc1ccc(O)cc1)NC(=S)Nc1ccc2c(c1)C(=O)OC21c2ccc(N(C)C)cc2Oc2cc(N(C)C)ccc21)C(=O)O [YLGpSPI (Cdc25c-S168), YLGpSPI] (X1-YLG[pS]PI-OH) |

Further lines, the compound ahead of its results:

| SMILES | Kd (Pin1) [µM] | Kd (Pin1 WW domain) [µM] | Kd (Pin1 PPIase domain) [µM] |
| --- | --- | --- | --- |
| CC(C)C[C@H](NC(=O)[C@H](Cc1ccccc1)NC(=O)[C@@H]1CCCN1C(=O)[C@H](CO)NC(=O)[C@H](Cc1ccc(O)cc1)NC(=O)[C@H](Cc1ccccc1)NC(=O)[C@H](Cc1c[nH]c2ccccc12)NC(=S)Nc1ccc2c(c1)C(=O)OC21c2ccc(N(C)C)cc2Oc2cc(N(C)C)ccc21)C(=O)N[C@@H](CCC(=O)O)C(=O)O (X1-WFYSPFLE-OH) | > 540 |  |  |
| CC(C)[C@H](NC(=O)[C@@H]1CCCN1C(=O)[C@H](COP(=O)(O)O)NC(=O)[C@H](CO)NC(=O)[C@H](CO)NC(=O)CNC(=S)Nc1ccc2c(c1)C(=O)OC21c2ccc(N(C)C)cc2Oc2cc(N(C)C)ccc21)C(=O)O [GSSpSPV (Wee1-S123), GSSpSPV] (X1-GSS[pS]PV-OH) | 73 ± 4.9 |  |  |
| CC(C)C[C@H](NC(=S)Nc1ccc2c(c1)C(=O)OC21c2ccc(N(C)C)cc2Oc2cc(N(C)C)ccc21)C(=O)N[C@@H](Cc1ccc(O)cc1)C(=O)N[C@@H](CCCNC(=N)N)C(=O)N[C@@H](COP(=O)(O)O)C(=O)N1CCC[C@H]1C(=O)N[C@@H](CO)C(=O)O [LYRpSPS (Cdc25c-S214), LYRpSPS] (X1-LYR[pS]PS-OH) | 47 ± 7.3 | 72 ± 15 | > 500 |
| CN(C)c1ccc2c(c1)Oc1cc(N(C)C)ccc1C21OC(=O)c2cc(NC(=S)N3CCC[C@H]3C(=O)N3CCC[C@H]3C(=O)NCC(=O)N[C@@H](COP(=O)(O)O)C(=O)N3CCC[C@H]3C(=O)N3CCC[C@H]3C(=O)O)ccc21 [PPGpSPP (Myt1-S416), PPGpSPP] (X1-PPG[pS]PP-OH) | 80 ± 18 | 126 ± 21 |  |

From patent US7127357B1, “Crystal structure of WW domains and methods of use thereof” (The Salk Institute for Biological Studies, priority 2000, dated 2006)
